We go through 4 molecules from article PMC7332293.

The chains behind the UniProt entries cited, without tags or fusion partners.
UniProt Q4ZIN3: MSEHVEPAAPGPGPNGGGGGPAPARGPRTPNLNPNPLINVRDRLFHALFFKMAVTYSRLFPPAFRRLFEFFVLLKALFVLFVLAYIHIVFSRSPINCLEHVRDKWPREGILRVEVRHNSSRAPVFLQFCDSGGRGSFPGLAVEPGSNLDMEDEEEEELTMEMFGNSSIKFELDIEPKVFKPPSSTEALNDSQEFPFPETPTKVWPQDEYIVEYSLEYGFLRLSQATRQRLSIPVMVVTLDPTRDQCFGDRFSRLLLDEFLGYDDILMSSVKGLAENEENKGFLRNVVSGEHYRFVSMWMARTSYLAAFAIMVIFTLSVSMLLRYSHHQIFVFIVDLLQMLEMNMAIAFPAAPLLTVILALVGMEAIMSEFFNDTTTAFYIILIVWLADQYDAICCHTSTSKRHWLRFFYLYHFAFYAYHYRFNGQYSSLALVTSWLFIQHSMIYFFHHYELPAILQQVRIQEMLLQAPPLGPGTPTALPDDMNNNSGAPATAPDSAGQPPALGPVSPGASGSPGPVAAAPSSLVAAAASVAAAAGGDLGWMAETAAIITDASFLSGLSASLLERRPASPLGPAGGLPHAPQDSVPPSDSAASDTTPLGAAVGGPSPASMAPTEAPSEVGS
UniProt Q9BY78: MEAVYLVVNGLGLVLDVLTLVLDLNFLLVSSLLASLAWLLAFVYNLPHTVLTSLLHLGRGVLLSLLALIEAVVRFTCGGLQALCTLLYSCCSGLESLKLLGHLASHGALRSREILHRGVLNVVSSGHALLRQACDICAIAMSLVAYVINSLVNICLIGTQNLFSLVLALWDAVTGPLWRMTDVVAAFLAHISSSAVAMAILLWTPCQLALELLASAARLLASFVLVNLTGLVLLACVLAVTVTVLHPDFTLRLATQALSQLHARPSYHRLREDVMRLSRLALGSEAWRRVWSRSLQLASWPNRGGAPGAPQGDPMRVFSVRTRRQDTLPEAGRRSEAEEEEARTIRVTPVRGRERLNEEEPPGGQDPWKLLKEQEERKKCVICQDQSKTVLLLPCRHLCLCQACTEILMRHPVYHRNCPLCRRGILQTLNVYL

Results are given in words; binding and its absence hold for the method and conditions named. Binding seen in cells or lysates may run through a third protein. Some entries that bind do so weakly or less than the wild type. For some assays here: Where a sequence is shown, tags or fusion partners need not be part of it.

One assay addresses T1, S-tagged UBXD8 (UniProt Q96CS3).
T1 sequence: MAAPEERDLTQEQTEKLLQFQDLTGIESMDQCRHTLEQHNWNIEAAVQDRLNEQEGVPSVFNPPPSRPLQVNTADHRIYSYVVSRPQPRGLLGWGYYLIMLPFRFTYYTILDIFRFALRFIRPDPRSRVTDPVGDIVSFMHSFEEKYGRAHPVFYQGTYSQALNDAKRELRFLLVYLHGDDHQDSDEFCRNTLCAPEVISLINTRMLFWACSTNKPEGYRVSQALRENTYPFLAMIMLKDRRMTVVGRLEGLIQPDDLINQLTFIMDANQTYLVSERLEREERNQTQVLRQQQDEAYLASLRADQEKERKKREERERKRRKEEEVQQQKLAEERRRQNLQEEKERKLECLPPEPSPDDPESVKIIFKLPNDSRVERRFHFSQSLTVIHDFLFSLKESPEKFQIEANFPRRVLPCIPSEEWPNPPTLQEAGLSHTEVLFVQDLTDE
As to the kind of experiment: pull-down; S-tagged HCIP transiently expressed in Flp-In293 cells stably expressing the FH-tagged E3; lysates in 1% LMNG; S-protein agarose; western blot.

The target in the next assay is T2, S-tagged TMEM43 (human) (UniProt Q9BTV4).
T2 sequence: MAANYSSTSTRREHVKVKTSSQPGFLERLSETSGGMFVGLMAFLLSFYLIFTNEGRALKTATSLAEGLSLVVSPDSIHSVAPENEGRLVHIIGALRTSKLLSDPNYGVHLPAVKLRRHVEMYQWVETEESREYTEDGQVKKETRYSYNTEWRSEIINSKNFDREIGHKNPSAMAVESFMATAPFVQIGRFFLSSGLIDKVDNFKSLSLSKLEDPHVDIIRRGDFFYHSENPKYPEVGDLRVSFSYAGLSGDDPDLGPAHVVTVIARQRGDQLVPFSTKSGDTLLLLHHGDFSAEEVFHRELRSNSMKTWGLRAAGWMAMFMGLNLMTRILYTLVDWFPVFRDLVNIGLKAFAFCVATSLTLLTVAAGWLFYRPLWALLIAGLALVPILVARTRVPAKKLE
The description is as above.

A further assay has as its target T3, S-tagged AUP1 (UniProt Q9Y679).
T3 sequence: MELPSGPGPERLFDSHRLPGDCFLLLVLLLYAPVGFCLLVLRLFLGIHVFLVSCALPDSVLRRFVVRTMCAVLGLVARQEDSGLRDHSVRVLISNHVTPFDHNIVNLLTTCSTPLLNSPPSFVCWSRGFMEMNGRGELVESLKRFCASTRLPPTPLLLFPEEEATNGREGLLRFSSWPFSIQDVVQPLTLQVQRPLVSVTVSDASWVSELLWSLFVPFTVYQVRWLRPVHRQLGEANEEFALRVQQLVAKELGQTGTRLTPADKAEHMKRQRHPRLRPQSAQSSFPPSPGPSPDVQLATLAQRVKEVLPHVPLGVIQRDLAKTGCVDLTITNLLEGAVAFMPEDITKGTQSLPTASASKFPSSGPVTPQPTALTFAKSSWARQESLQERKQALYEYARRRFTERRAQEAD
The assay is described as above.

The next assay addresses T4, S-tagged TMED1 (human) (UniProt Q13445).
T4 sequence: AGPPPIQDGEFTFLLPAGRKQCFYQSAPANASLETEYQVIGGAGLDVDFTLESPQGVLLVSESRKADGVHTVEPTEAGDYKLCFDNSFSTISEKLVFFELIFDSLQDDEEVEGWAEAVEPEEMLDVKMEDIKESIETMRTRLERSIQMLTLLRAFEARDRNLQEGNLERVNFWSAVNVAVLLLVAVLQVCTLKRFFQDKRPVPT
The assay is described as above.

The next assay concerns the target TMEM259-S (UniProt Q4ZIN3). The assay is described as above.
For assay [1], the target named is FH-RNF26WT (human) (UniProt Q9BY78). Put plainly: co-sedimentation; velocity sedimentation of 1% LMNG lysates of FH-RNF26WT cells on a 5-30% sucrose gradient (39,000 rpm, 16 hr, 4°C); 13 fractions, TCA-precipitated, western blot. On the technique in general: A western blot detects proteins with antibodies after separation by electrophoresis.
The target is the same in assay [2]. Put plainly: co-IP; FH-RNF26WT Flp-In293 cells transfected with siRNAs (control, TMEM33, TMED1, ENDOD1); anti-FLAG agarose; western blot of endogenous HCIPs.

B1: TMEM33 (endogenous) (protein, UniProt P57088 1-247)
chain: MADTTPNGPQGAGAVQFMMTNKLDTAMWLSRLFTVYCSALFVLPLLGLHEAASFYQRALLANALTSALRLHQRLPHFQLSRAFLAQALLEDSCHYLLYSLIFVNSYPVTMSIFPVLLFSLLHAATYTKKVLDARGSNSLPLLRSVLDKLSANQQNILKFIACNEIFLMPATVFMLFSGQGSLLQPFIYYRFLTLRYSSRRNPYCRTLFNELRIVVEHIIMKPACPLFVRRLCLQSIAFISRLAPTVP
As to B1, the binding entry is recorded as “no binding” with S-tagged UBXD8, “no binding” with S-tagged TMEM43 (human), “no binding” with S-tagged AUP1 and “binds” in the assay with S-tagged TMED1 (human).

B2: FH-RNF185 (enzyme, UniProt Q96GF1 1-192)
chain: MASKGPSASASPENSSAGGPSGSSNGAGESGGQDSTFECNICLDTAKDAVISLCGHLFCWPCLHQWLETRPNRQVCPVCKAGISRDKVIPLYGRGSTGQQDPREKTPPRPQGQRPEPENRGGFQGFGFGDGGFQMSFGIGAFPFGIFATAFNINDGRPPPAVPGTPQYVDEQFLSRLFLFVALVIMFWLLIA
On to B2, for which, in the assay with TMEM259-S, the binding result is “binds”.

B3: TMEM43/LUMA (endogenous) (protein, UniProt Q9BTV4 1-400)
chain: T2 sequence
As for B3, the binding result with FH-RNF26WT (human) [1] and with FH-RNF26WT (human) [2] was “binds” in each case.

B4: ENDOD1 (endonuclease domain containing-1), endogenous (protein, UniProt O94919 22-500)
chain: RLVGEEEAGFGECDKFFYAGTPPAGLAADSHVKICQRAEGAERFATLYSTRDRIPVYSAFRAPRPAPGGAEQRWLVEPQIDDPNSNLEEAINEAEAITSVNSLGSKQALNTDYLDSDYQRGQLYPFSLSSDVQVATFTLTNSAPMTQSFQERWYVNLHSLMDRALTPQCGSGEDLYILTGTVPSDYRVKDKVAVPEFVWLAACCAVPGGGWAMGFVKHTRDSDIIEDVMVKDLQKLLPFNPQLFQNNCGETEQDTEKMKKILEVVNQIQDEERMVQSQKSSSPLSSTRSKRSTLLPPEASEGSSSFLGKLMGFIATPFIKLFQLIYYLVVAILKNIVYFLWCVTKQVINGIESCLYRLGSATISYFMAIGEELVSIPWKVLKVVAKVIRALLRILCCLLKAICRVLSIPVRVLVDVATFPVYTMGAIPIVCKDIALGLGGTVSLLFDTAFGTLGGLFQVVFSVCKRIGYKVTFDNSGEL
Turning to B4, the binding result with S-tagged UBXD8 is “no binding”; in the assay with S-tagged TMEM43 (human), “binds”; with S-tagged AUP1, “no binding”; with S-tagged TMED1 (human), “binds”.
